Source: PubChem BioAssay AID1347165 (National Center for Advancing Translational Sciences (NCATS), 2019)
Hit rate of the full screen: of about 220,000 compounds, about 5,700 (2.6%) were called active. This list was built around the results that the source calls inconclusive (neither active nor inactive); the mix of calls is not that of the screen. The call rests on the fitted dose curve; in most records, active means well fitted inhibition curve with a large enough effect; inconclusive means small, poorly fitted or top-dose-only effect; inactive means no such curve, though single readings can be large or run the other way. Potencies of inconclusive entries are doubtful fits and often do not repeat.

biological target: Lysine-specific demethylase 5B (Homo sapiens) (UniProt Q9UGL1); experiment: Primary screen for KDM5B Histone Demethylases FDH-coupled qHTS; conditions: FDH-coupled NADH fluorescence (FDH is formaldehyde dehydrogenase); series mostly up to 57.7 µM; further: nearly all actives have a fitted effect of over 70% in size
Outline: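 Compound dilutions met 200 nM (final) KDM5BΔAP for 10 min at room temperature before substrate addition. The substrate mix held 12.5 µM H3K4me3 with cofactors 25 µM α-ketoglutarate and 50 µM Fe²⁺. NADH signal gain over 30 min defined activity.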
Potency means the concentration at half of the fitted maximal effect; tags describe the fitted curve by direction and shape.

UniProt Q9UGL1, sequence (Q9UGL1 whole entry, looked up): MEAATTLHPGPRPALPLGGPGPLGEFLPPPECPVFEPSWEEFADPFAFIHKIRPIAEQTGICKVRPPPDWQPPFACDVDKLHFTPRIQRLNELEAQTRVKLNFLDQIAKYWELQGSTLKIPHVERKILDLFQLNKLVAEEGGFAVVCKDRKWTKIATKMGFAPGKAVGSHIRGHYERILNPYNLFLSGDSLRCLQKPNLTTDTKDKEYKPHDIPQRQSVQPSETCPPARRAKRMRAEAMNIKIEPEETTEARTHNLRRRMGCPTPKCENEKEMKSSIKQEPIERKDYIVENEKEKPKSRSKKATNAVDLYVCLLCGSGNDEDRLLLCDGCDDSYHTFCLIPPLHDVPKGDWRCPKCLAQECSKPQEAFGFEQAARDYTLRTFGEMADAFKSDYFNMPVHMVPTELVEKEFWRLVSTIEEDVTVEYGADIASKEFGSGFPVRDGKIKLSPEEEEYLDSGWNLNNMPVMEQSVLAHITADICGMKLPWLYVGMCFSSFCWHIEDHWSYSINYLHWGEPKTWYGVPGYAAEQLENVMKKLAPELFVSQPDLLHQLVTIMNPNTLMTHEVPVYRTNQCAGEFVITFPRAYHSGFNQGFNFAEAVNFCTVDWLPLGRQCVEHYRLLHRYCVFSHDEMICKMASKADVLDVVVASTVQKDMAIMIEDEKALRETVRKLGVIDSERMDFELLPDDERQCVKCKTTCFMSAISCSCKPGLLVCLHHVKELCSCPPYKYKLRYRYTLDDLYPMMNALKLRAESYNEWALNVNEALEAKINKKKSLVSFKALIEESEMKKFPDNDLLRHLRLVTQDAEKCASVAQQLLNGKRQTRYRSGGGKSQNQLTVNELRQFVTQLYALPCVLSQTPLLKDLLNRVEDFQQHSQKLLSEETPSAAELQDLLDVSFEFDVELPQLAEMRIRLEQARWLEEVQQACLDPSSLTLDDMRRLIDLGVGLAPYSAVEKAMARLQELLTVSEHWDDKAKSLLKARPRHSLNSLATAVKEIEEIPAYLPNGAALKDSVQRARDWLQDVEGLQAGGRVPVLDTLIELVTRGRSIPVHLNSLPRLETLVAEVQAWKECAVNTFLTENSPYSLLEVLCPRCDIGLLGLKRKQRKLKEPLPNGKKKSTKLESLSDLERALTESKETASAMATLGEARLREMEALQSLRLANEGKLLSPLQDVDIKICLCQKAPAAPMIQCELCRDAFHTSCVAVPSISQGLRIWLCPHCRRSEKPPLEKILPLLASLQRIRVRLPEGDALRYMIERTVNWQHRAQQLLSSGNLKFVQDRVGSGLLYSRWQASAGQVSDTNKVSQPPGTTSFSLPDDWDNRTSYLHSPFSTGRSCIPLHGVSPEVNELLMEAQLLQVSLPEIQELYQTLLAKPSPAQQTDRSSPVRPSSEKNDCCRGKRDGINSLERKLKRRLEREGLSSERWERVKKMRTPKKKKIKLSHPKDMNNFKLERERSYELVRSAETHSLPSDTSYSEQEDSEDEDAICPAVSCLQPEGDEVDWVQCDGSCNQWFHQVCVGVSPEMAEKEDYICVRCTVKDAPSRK

SMILES | Potency
COc1ccccc1-c1nc(C(=O)N2CCCC2)n2ccncc12 | inconclusive: 63.1 µM [inhibitor, partial curve, poor fit]
O=C(O)C1=NOC2CN(C(=O)C3CCCCC3)CC12 (configuration not stated) | inactive
COc1ccc(-c2ccc3c(c2)C(=O)N2CCN(C(=O)CC(C)(C)C)C[C@@H]2C(=O)N3)cc1 | active: 28.2 µM
CN(C)c1cccc2c1c(NS(=O)(=O)c1cn(C)cn1)nn2C | inconclusive: 39.8 µM [inhibitor, single point]
COC[C@H]1CCCN1Cc1cn(Cc2ccccc2)nc1-c1cc2ccccc2o1 | inconclusive: 11.2 µM [inhibitor, partial curve, poor fit]
Cc1cccc(NC(=O)CSc2nc3n[nH]c(C)c3c(=N)n2-c2cccc(Cl)c2)c1 | inconclusive: 28.2 µM [inhibitor, partial curve, poor fit]
COc1ccc(C(=O)NC(C)C(=O)N2CCN(c3ccccn3)CC2)cc1F (configuration not stated) | inconclusive: 22.4 µM [inhibitor, single point]
CC(=O)N1CCC2(C1)OC(=O)Nc1cnccc12 (configuration not stated) | inconclusive: 31.6 µM [inhibitor, single point]
CSCC(=O)N[C@H]1CCN2C(=O)c3cc(-c4ccsc4)ccc3NC(=O)[C@H]12 | inconclusive: 25.1 µM [inhibitor, partial curve, poor fit]
COc1ccc(NC(=O)[C@@H]2C[C@H](c3ccc(F)cc3)N(Cc3ccccc3Cl)C2)cn1 | inconclusive: 39.8 µM [inhibitor, partial curve, poor fit]
Cc1cc(C)cc(C(=O)NCCc2sc(-c3ccc(F)cc3)nc2C)c1 | inconclusive: 35.5 µM [inhibitor, partial curve, poor fit]
CSc1ccc(/C=[N+](/[O-])c2ccccc2)cc1 | inconclusive: 14.1 µM [inhibitor, partial curve, poor fit]
Cc1nc2cc(NC(C)C(=O)Nc3ccc(Cl)cc3)ccc2o1 (configuration not stated) | inconclusive: 11.2 µM [inhibitor, partial curve, poor fit]
Cc1nn(C)c2c1c(C(F)(F)F)cc(=O)n2Cc1ccc(Br)cc1F | inconclusive: 31.6 µM [inhibitor, partial curve, poor fit]
COc1ccccc1C(=O)N1CCCN(c2nnc3ccccn23)CC1 | active: 31.6 µM
Cn1c(=O)[nH]c(=O)c2c1nc(N1CCC(C(N)=O)CC1)n2Cc1ccccc1Cl | inactive
CCc1cc2c(=O)c(-c3ccc4c(c3)OCCCO4)coc2cc1OS(C)(=O)=O | inactive
